Biological target: T1, Human 5T4 full length (human, UniProt Q13641 32-420)
T1 sequence (looked up): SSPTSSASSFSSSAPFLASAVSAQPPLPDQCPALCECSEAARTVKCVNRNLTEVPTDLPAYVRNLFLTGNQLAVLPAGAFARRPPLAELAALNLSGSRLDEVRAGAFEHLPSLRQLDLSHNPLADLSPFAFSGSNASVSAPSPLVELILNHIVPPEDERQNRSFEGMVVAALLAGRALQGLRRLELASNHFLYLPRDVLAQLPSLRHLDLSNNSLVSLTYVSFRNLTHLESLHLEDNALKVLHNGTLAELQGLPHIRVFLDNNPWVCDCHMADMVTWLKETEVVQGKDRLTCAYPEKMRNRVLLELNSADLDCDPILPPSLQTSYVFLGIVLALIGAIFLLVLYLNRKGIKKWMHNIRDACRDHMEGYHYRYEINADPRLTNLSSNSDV
Assay: cell-based or functional assay

B1: anti-5T4 hu-scFv-Fc-HPRN (Fc fusion)
chain: EVQLVESGGGLVQPGGSLRLSCKASGYSFTGYYMHWVRQAPGKGLEWVSRINPNNGVTLYNQKFKDRFTISRDNSKNTLYLQMNSLRAEDTAVYYCARSTMITNYVMDYWGQGTLVTVSSGGGGSGGGGSGGGGSGGGGSGGGGSGGGGSDIQMTQSPSSLSASVGDRVTITCKASQSVSNDVAWYQQKPGKAPKLLIYYTSSRYAGVPSRFSGSGSGTDFTLTISSLQPEDFATYYCQQDYNSPPTFGGGTKLEIKASTC[human IgG1 Fc with changes not listed]GCSGGPGGGSKESRAKKFQRQHMDSDSSPSSSSTYCNLMMCCRNMTQGRCKPVNTFVHEPLVDVQNVCFQEKVTCKNGQGNCYKSNSSMHITDCRLTNGSRYPNCAYRTSPKERHIIVACGGSPYVPVHFDASVEDST
- IC50 of cytotoxicity, A431 cells: 38 µg/mL
- IC50 of cytotoxicity, A431 cells (using tetramer MW): 135 nM
- IC50 of cytotoxicity, SKOV3 cells: 27 µg/mL
- IC50 of cytotoxicity, SKOV3 cells (using tetramer MW): 92 nM

From patent US20160304617A1 (ASANA BIOSCIENCES, published 2016)
